This note sets out measurements from patent US20020009726A1 (LA JOLLA CANCER RESEARCH FOUNDATION, published 2002).

This assay has as its target T1, CD40 from RS11846 B-cell lymphoma cell lysate (human, UniProt P25942 21-277).
T1 construct: Endogenous protein solubilised from cells; also called CD40 in the cell lysate
In words: GST pull-down from RS11846 lymphoma cell lysate, western blot with anti-CD40. On the procedure: For experiments with cell lysates, 2×10⁷ RS11846 B-cell lymphoma cells were lysed in 0.25 ml of ice-cold Tris buffered saline (TBS) pH 7.4 (10 mM Tris and 150 mM NaCl) including 5 mM EDTA, 1% Triton-X100, with protease inhibitors PMSF, aprotinin, leupeptin, benzamidine, and pepstatin. Nuclei and cellular debris were removed from the cell lysate by centrifugation as described (Reed et al., Canc. Res. 51:6529-6538 (1991)). […] Proteins adsorbed to beads were eluted by boiling in SDS-PAGE sample buffer, electrophoresed in SDS-PAGE gels containing 12% acrylamide and then transferred to nitrocellulose for western blotting. The resulting blots were preblocked in TBS buffer containing 5% non-fat milk and 3% bovine serum albumin and then incubated with 2 μl/ml of anti-human CD40 monoclonal antibody B-B20 (Biosource, Inc., Camarillo Calif.) followed by horseradish peroxidase-conjugated goat anti-mouse IgG (see Reed et al., supra, 1992; Hanada et al., Canc. Res. 53:4978-4986 (1993), which is incorporated herein by reference). The presence of bound peroxidase was detected using an emission chemiluminescence method performed according to the manufacturer's instructions (Amersham, Inc., Arlington Heights Ill.).
For orientation: A western blot detects proteins with antibodies after separation by electrophoresis.

T1 sequence (P25942 21-277 limits assumed): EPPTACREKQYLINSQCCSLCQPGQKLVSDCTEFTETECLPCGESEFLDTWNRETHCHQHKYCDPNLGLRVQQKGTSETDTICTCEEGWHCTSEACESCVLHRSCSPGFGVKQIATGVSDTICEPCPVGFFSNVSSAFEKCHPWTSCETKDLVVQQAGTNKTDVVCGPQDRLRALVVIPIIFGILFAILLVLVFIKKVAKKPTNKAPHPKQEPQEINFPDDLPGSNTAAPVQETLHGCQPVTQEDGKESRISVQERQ

B1: GST (enzyme)
chain: not shown
notes: Control bait on glutathione-Sepharose beads; also called GST itself; GST-control protein
Take B1: the binding result is listed as “no binding”.
